Laboratory results published in the supplement of paper PMC8728848.
The other results are listed elsewhere or left out.

Columns and labels:
Assay in all cases: glycan array binding signal (z-score within array); higher = stronger binding
Details in all cases: glycan notation: IUPAC condensed, linker removed
[1] = biological target: Gal(b1-4)GlcNAc(b1-3)Gal(b1-4)GlcNAc(b1-3)[Gal(b1-4)GlcNAc(b1-3)Gal(b1-4)GlcNAc(b1-6)]GalNAc
Outline: (§1)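 Negative Z-scores can be read as non-binding. The Z-score is calculated within each array and then averaged across arrays of one protein sequence at different concentrations or buffers and across linkers. Arrays, 3228 in all, were curated from the Consortium for Functional Glycomics database and kept only where the protein sequence was available.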

[2] = biological target: Gal(b1-4)GlcNAc(b1-3)Gal(b1-4)GlcNAc(b1-6)[Gal(b1-3)]GalNAc
Outline: as §1

[3] = biological target: Gal(b1-4)GlcNAc(b1-3)Gal(b1-4)[Fuc(a1-3)]GlcNAc(b1-3)Gal(b1-4)[Fuc(a1-3)]GlcNAc
Outline: as §1

[4] = biological target: Gal(b1-4)GlcNAc(b1-3)GalNAc
Outline: as §1

[5] = biological target: Gal(b1-4)GlcNAc(b1-3)[Fuc(a1-3)GlcNAc(b1-6)]Gal(b1-4)Glc
Outline: as §1

[6] = biological target: Gal(b1-4)GlcNAc(b1-3)[Gal(b1-4)GlcNAc(b1-6)]Gal(b1-4)GlcNAc
Outline: as §1

[7] = biological target: Gal(b1-4)GlcNAc(b1-3)[GlcNAc(b1-6)]Gal(b1-4)GlcNAc
Outline: as §1

[8] = biological target: Gal(b1-4)GlcNAc(b1-6)Gal(b1-4)GlcNAc
Outline: as §1

[9] = biological target: Gal(b1-4)GlcNAc(b1-6)GalNAc
Outline: as §1

[10] = biological target: Gal(b1-4)GlcNAc(b1-6)[Gal(b1-3)]GalNAc
Outline: as §1

[11] = biological target: Gal(b1-4)GlcNAc(b1-6)[Gal(b1-4)GlcNAc(b1-3)]GalNAc
Outline: as §1

Gal(b1-4)GlcNAc6P = biological target: Gal(b1-4)GlcNAc6P
Outline: as §1

Gal(b1-6)Gal = biological target: Gal(b1-6)Gal
Outline: as §1

Gal3S(b1-3)GalNAc = biological target: Gal3S(b1-3)GalNAc
Outline: as §1

Gal3S(b1-3)GlcNAc = biological target: Gal3S(b1-3)GlcNAc
Outline: as §1

[12] = biological target: Gal3S(b1-3)[Fuc(a1-4)]GlcNAc
Outline: as §1

Gal3S(b1-4)Glc = biological target: Gal3S(b1-4)Glc
Outline: as §1

Gal3S(b1-4)Glc6S = biological target: Gal3S(b1-4)Glc6S
Outline: as §1

Gal3S(b1-4)GlcNAc = biological target: Gal3S(b1-4)GlcNAc
Outline: as §1

[13] = biological target: Gal3S(b1-4)[Fuc(a1-3)]Glc6S
Outline: as §1

[14] = biological target: Gal3S(b1-4)[Fuc(a1-3)]GlcNAc
Outline: as §1

[15] = biological target: Gal3S(b1-4)[Fuc(a1-3)]GlcNAc6S
Outline: as §1

Gal3S4S(b1-4)GlcNAc = biological target: Gal3S4S(b1-4)GlcNAc
Outline: as §1

Gal3S6S(b1-4)GlcNAc = biological target: Gal3S6S(b1-4)GlcNAc
Outline: as §1

Gal3S6S(b1-4)GlcNAc6S = biological target: Gal3S6S(b1-4)GlcNAc6S
Outline: as §1

Gal4S(b1-4)GlcNAc = biological target: Gal4S(b1-4)GlcNAc
Outline: as §1

Gal4S6S(b1-4)GlcNAc = biological target: Gal4S6S(b1-4)GlcNAc
Outline: as §1

Gal6P(b1-4)GlcNAc = biological target: Gal6P(b1-4)GlcNAc
Outline: as §1

Gal6S(b1-3)GlcNAc = biological target: Gal6S(b1-3)GlcNAc
Outline: as §1

Gal6S(b1-3)GlcNAc6S = biological target: Gal6S(b1-3)GlcNAc6S
Outline: as §1

Gal6S(b1-4)Glc = biological target: Gal6S(b1-4)Glc
Outline: as §1

Gal6S(b1-4)Glc6S = biological target: Gal6S(b1-4)Glc6S
Outline: as §1

Gal6S(b1-4)GlcNAc = biological target: Gal6S(b1-4)GlcNAc
Outline: as §1

Gal6S(b1-4)GlcNAc6S = biological target: Gal6S(b1-4)GlcNAc6S
Outline: as §1

GalNAc(a1-3)Gal = biological target: GalNAc(a1-3)Gal
Outline: as §1

GalNAc(a1-3)GalNAc = biological target: GalNAc(a1-3)GalNAc
Outline: as §1

[16] = biological target: GalNAc(a1-3)GalNAc(b1-3)Gal(a1-4)Gal(b1-4)Glc
Outline: as §1

[17] = biological target: GalNAc(a1-3)GalNAc(b1-3)Gal(a1-4)Gal(b1-4)GlcNAc
Outline: as §1

GalNAc(b1-3)Gal = biological target: GalNAc(b1-3)Gal
Outline: as §1

[18] = biological target: GalNAc(b1-3)Gal(a1-4)Gal(b1-4)GlcNAc
Outline: as §1

[19] = biological target: GalNAc(b1-3)Gal(a1-4)Gal(b1-4)GlcNAc(b1-3)Gal(b1-4)Glc
Outline: as §1

[20] = biological target: GalNAc(b1-3)Gal(a1-6)Gal(b1-4)Glc
Outline: as §1

GalNAc(b1-3)GalNAc = biological target: GalNAc(b1-3)GalNAc
Outline: as §1

GalNAc(b1-3)GlcNAc = biological target: GalNAc(b1-3)GlcNAc
Outline: as §1

GalNAc(b1-4)Gal(b1-4)Glc = biological target: GalNAc(b1-4)Gal(b1-4)Glc
Outline: as §1

B1: CGL (Crenomytilus grayanus), H2FH31 (protein)
chain: MTTFLIKHKASGKFLHPYGGSSNPANNTKLVLHSDIHERMYFQFDVVDERWGYIKHVASGKIVHPYGGQANPPNETNMVLHQDRHDRALFAMDFFNDNIMHKGGKYIHPKGGSPNPPNNTETVIHGDKHAAMEFIFVSPKNKDKRVLVYA
glycan array binding signal (z-score) [1]: 0.263
glycan array binding signal (z-score) [2]: -0.149
glycan array binding signal (z-score) [3]: 0.063
glycan array binding signal (z-score) [4]: -0.073
glycan array binding signal (z-score) [5]: -0.112
glycan array binding signal (z-score) [6]: 2.53
glycan array binding signal (z-score) [7]: 0.412
glycan array binding signal (z-score) [8]: -0.019
glycan array binding signal (z-score) [9]: 0.026
glycan array binding signal (z-score) [10]: 0.099
glycan array binding signal (z-score) [11]: 0.592
glycan array binding signal (z-score) (Gal(b1-4)GlcNAc6P): 0.118
glycan array binding signal (z-score) (Gal(b1-6)Gal): -0.324
glycan array binding signal (z-score) (Gal3S(b1-3)GalNAc): -0.242
glycan array binding signal (z-score) (Gal3S(b1-3)GlcNAc): -0.32
glycan array binding signal (z-score) [12]: -0.33
glycan array binding signal (z-score) (Gal3S(b1-4)Glc): -0.326
glycan array binding signal (z-score) (Gal3S(b1-4)Glc6S): -0.298
glycan array binding signal (z-score) (Gal3S(b1-4)GlcNAc): -0.25
glycan array binding signal (z-score) [13]: -0.298
glycan array binding signal (z-score) [14]: -0.2
glycan array binding signal (z-score) [15]: -0.323
glycan array binding signal (z-score) (Gal3S4S(b1-4)GlcNAc): -0.363
glycan array binding signal (z-score) (Gal3S6S(b1-4)GlcNAc): -0.3
glycan array binding signal (z-score) (Gal3S6S(b1-4)GlcNAc6S): -0.344
glycan array binding signal (z-score) (Gal4S(b1-4)GlcNAc): -0.357
glycan array binding signal (z-score) (Gal4S6S(b1-4)GlcNAc): -0.343
glycan array binding signal (z-score) (Gal6P(b1-4)GlcNAc): -0.329
glycan array binding signal (z-score) (Gal6S(b1-3)GlcNAc): -0.351
glycan array binding signal (z-score) (Gal6S(b1-3)GlcNAc6S): -0.433
glycan array binding signal (z-score) (Gal6S(b1-4)Glc): -0.407
glycan array binding signal (z-score) (Gal6S(b1-4)Glc6S): -0.357
glycan array binding signal (z-score) (Gal6S(b1-4)GlcNAc): -0.429
glycan array binding signal (z-score) (Gal6S(b1-4)GlcNAc6S): -0.383
glycan array binding signal (z-score) (GalNAc(a1-3)Gal): 2.28
glycan array binding signal (z-score) (GalNAc(a1-3)GalNAc): -0.076
glycan array binding signal (z-score) [16]: -0.289
glycan array binding signal (z-score) [17]: -0.172
glycan array binding signal (z-score) (GalNAc(b1-3)Gal): -0.191
glycan array binding signal (z-score) [18]: -0.214
glycan array binding signal (z-score) [19]: 0.074
glycan array binding signal (z-score) [20]: -0.079
glycan array binding signal (z-score) (GalNAc(b1-3)GalNAc): -0.198
glycan array binding signal (z-score) (GalNAc(b1-3)GlcNAc): 0.747
glycan array binding signal (z-score) (GalNAc(b1-4)Gal(b1-4)Glc): -0.312
